Here are results for 58 variants from the GPR68 mutational scans of Howard et al. (2025).

Sequences and labels used below:
B1: GPR68, Q15743 (parent)
chain: MGNITADNSSMSCTIDHTIHQTLAPVVYVTVLVVGFPANCLSLYFGYLQIKARNELGVYLCNLTVADLFYICSLPFWLQYVLQHDNWSHGDLSCQVCGILLYENIYISVGFLCCISVDRYLAVAHPFRFHQFRTLKAAVGVSVVIWAKELLTSIYFLMHEEVIEDENQHRVCFEHYPIQAWQRAINYYRFLVGFLFPICLLLASYQGILRAVRRSHGTQKSRKDQIQRLVLSTVVIFLACFLPYHVLLLVRSVWEASCDFAKGVFNAYHFSLLLTSFNCVADPVLYCFVSETTHRDLARLRGACLAFLTCSRTGRAREAYPLGAPEASGKSGAQGEEPELLTKLHPAFQTPNSPGSGGFPTGRLA

In series [1] the parent is B1. In words: cAMP reporter score (Enrich2 score, wild type = 0); higher = more signal; HEK293T, FACS bins.
Variants of B1 are the subject of series [2]. Kind of series: surface expression score (Enrich2 score, wild type = 0); higher = more signal; HEK293T, FACS bins.

Scores with a large standard error are left out. Two further conditions of the source, in which the scores hardly spread, are not listed. Names with del lack the residues named; names with ins carry added residues between the positions named. For part of these data: The data file names ogerin without a concentration.

On to R213Q, for which the cAMP reporter score in series [1] (pH 6, modulator: ogerin) stood at 1.33; in series [1] (pH 6.5, modulator: ogerin), 3.31. Further, the surface expression score in series [2] was 0.454.
For the variant I71_C72insGS, in series [1] (pH 6.5, modulator: ogerin), the cAMP reporter score was -2.36. For the same variant, the surface expression score in series [2] is -3.48.
As for A347T, the cAMP reporter score in series [1] (pH 6) is -1.06; in series [1] (pH 6, modulator: ogerin) it was 0.108; in series [1] (pH 6.5, modulator: ogerin), -0.733. Further, in series [2], the surface expression score stood at 0.195.
In the case of L248F, the cAMP reporter score is -0.409 in series [1] (pH 6) and -0.436 in series [1] (pH 6.5, modulator: ogerin).
Turning to A281I, the cAMP reporter score in series [1] (pH 6) is -0.921; in series [1] (pH 6.5, modulator: ogerin), -0.5. In addition, in series [2], the surface expression score was found to be 0.866.
As to V230_L231insGSG, the cAMP reporter score in series [1] (pH 6) was -1.78; in series [1] (pH 6, modulator: ogerin) it was -1.35. In series [2], the surface expression score was -3.56.
Regarding A66Y, the cAMP reporter score in series [1] (pH 6, modulator: ogerin) was -1.37; in series [1] (pH 6.5, modulator: ogerin), -0.737. In addition, the surface expression score in series [2] was -0.508.
In the same order, the values of V253Y are 0.713, 0.712 and 0.745.
Take C240Q: the cAMP reporter score in series [1] (pH 6) is -0.035; in series [1] (pH 6, modulator: ogerin), -0.395; in series [1] (pH 6.5, modulator: ogerin), -0.968. Further, the surface expression score in series [2] was -1.7.
Consider C240V, for which the cAMP reporter score was determined as 3.05 in series [1] (pH 6) and 0.855 in series [1] (pH 6, modulator: ogerin). In addition, the surface expression score in series [2] is -0.336.
Turning to C240N, in series [1] (pH 6, modulator: ogerin), the cAMP reporter score was -1.09. The surface expression score in series [2] is -1.16.
As to C240D, the cAMP reporter score in series [1] (pH 6) is -0.697; in series [1] (pH 6, modulator: ogerin), -2.7; in series [1] (pH 6.5, modulator: ogerin), -2.4.
V212_R213insG: in series [1] (pH 6, modulator: ogerin), the cAMP reporter score is -1.22. Also, the surface expression score in series [2] was -0.025.
In the case of H159del, the cAMP reporter score was -0.489 in series [1] (pH 6, modulator: ogerin) and -0.649 in series [1] (pH 6.5, modulator: ogerin). Further, in series [2], the surface expression score was -1.36.
In the same order, the values of A122N are -0.802, -1.85 and -0.643.
In the same order, the values of A122W are -1.8, -3.22 and -0.396.
For A122V, the cAMP reporter score in series [1] (pH 6, modulator: ogerin) was -2.2; in series [1] (pH 6.5, modulator: ogerin) it was -0.437.
For D118_R119insG, the cAMP reporter score in series [1] (pH 6, modulator: ogerin) is -0.688; in series [1] (pH 6.5, modulator: ogerin), -0.437. In series [2], the surface expression score was -2.7.
As to S232_T233insGSG, the cAMP reporter score in series [1] (pH 6) was -0.138; in series [1] (pH 6, modulator: ogerin), -0.632; in series [1] (pH 6.5, modulator: ogerin) it was -1. For the same variant, the surface expression score in series [2] was -2.6.
For the variant C279N, the cAMP reporter score in series [1] (pH 6) is -1.09; in series [1] (pH 6, modulator: ogerin), -2.01. For the same variant, the surface expression score in series [2] is -2.52.
In the case of F190D, in series [1] (pH 6.5, modulator: ogerin), the cAMP reporter score was -1.77.
As to C258V, the cAMP reporter score in series [1] (pH 6) was -1.69; in series [1] (pH 6, modulator: ogerin), -1.97. Further, in series [2], the surface expression score is -2.79.
C258K: the cAMP reporter score in series [1] (pH 6) is -0.198; in series [1] (pH 6, modulator: ogerin), -0.634; in series [1] (pH 6.5, modulator: ogerin), -1.14. The surface expression score in series [2] is -1.53.
In the case of C61H, the cAMP reporter score in series [1] (pH 6, modulator: ogerin) was -0.663. Moreover, the surface expression score in series [2] is -1.7.
Take C199P: the cAMP reporter score in series [1] (pH 6, modulator: ogerin) is -2.58; in series [1] (pH 6.5, modulator: ogerin), -1.25.
As for A138del, the cAMP reporter score in series [1] (pH 6, modulator: ogerin) is -1.41. Further, in series [2], the surface expression score is -2.94.
With L202N, the cAMP reporter score in series [1] (pH 6, modulator: ogerin) was 1.03; in series [1] (pH 6.5, modulator: ogerin), -2.29.
In the case of L202R, the cAMP reporter score in series [1] (pH 6.5, modulator: ogerin) was -1.53. Besides, in series [2], the surface expression score was -3.38.
With L202P, the cAMP reporter score in series [1] (pH 6, modulator: ogerin) was -1.93; in series [1] (pH 6.5, modulator: ogerin), -0.741. Also, the surface expression score in series [2] is -1.48.
In the case of G302R, the cAMP reporter score came out at 2.47 in series [1] (pH 6); 0.128 in series [1] (pH 6, modulator: ogerin); 2.08 in series [1] (pH 6.5, modulator: ogerin). Moreover, in series [2], the surface expression score came out at 1.56.
With E255N, the cAMP reporter score in series [1] (pH 6.5, modulator: ogerin) is -1.1. Moreover, in series [2], the surface expression score stood at 0.531.
For the variant D67_L68insG, the cAMP reporter score in series [1] (pH 6.5, modulator: ogerin) is -1.45.
Y102E: in series [1] (pH 6.5, modulator: ogerin), the cAMP reporter score is -0.654. Moreover, in series [2], the surface expression score is 0.435.
In the same order, the values of S204D are -1.34 and -1.89.
On to S204H, for which the cAMP reporter score in series [1] (pH 6, modulator: ogerin) was -0.691; in series [1] (pH 6.5, modulator: ogerin) it was -3.05. Further, the surface expression score in series [2] was -0.733.
In the case of W254T, in series [1] (pH 6, modulator: ogerin), the cAMP reporter score is -0.281. Further, the surface expression score in series [2] came to 0.654.
Regarding R251Q, the cAMP reporter score in series [1] (pH 6) is -1.51; in series [1] (pH 6, modulator: ogerin) it was -0.71; in series [1] (pH 6.5, modulator: ogerin), -0.955. Besides, the surface expression score in series [2] is -0.801.
In the same order, the values of R251F are -2.45, -0.946, -2.33 and -1.49.
Y320_P321del: in series [1] (pH 6, modulator: ogerin), the cAMP reporter score turned out to be 0.374. Moreover, the surface expression score in series [2] is -0.758.
In the case of R53Q, the cAMP reporter score was -0.935 in series [1] (pH 6, modulator: ogerin) and -0.391 in series [1] (pH 6.5, modulator: ogerin).
In the case of V141A, the cAMP reporter score in series [1] (pH 6.5, modulator: ogerin) was -2.06. The surface expression score in series [2] was -0.826.
Turning to T275_F277del, the cAMP reporter score in series [1] (pH 6) is -1.01; in series [1] (pH 6.5, modulator: ogerin) it was -0.609. The surface expression score in series [2] is -0.427.
Take W181Y: the cAMP reporter score in series [1] (pH 6, modulator: ogerin) is 0.564; in series [1] (pH 6.5, modulator: ogerin), -0.595.
Consider I99_L100insG, for which the cAMP reporter score in series [1] (pH 6, modulator: ogerin) was -1.12. Also, the surface expression score in series [2] is -2.71.
As for T313Y, the cAMP reporter score was 0.636 in series [1] (pH 6, modulator: ogerin) and -0.995 in series [1] (pH 6.5, modulator: ogerin). Also, the surface expression score in series [2] was -0.616.
With A203V, in series [2], the surface expression score was -0.314.
Regarding L229N, the cAMP reporter score is 2.35 in series [1] (pH 6); -0.638 in series [1] (pH 6, modulator: ogerin); -0.426 in series [1] (pH 6.5, modulator: ogerin). The surface expression score in series [2] is -0.26.
Regarding L229P, the cAMP reporter score is -0.665 in series [1] (pH 6, modulator: ogerin) and -0.426 in series [1] (pH 6.5, modulator: ogerin). Moreover, the surface expression score in series [2] was -0.288.
Turning to L229Y, the cAMP reporter score in series [1] (pH 6) is -2.97; in series [1] (pH 6, modulator: ogerin), -2.47; in series [1] (pH 6.5, modulator: ogerin), -0.435. Moreover, in series [2], the surface expression score is -3.4.
For L229I, the cAMP reporter score in series [1] (pH 6.5, modulator: ogerin) is -0.397. Moreover, the surface expression score in series [2] is -0.284.
L229E: the cAMP reporter score in series [1] (pH 6) is 0.756; in series [1] (pH 6, modulator: ogerin), -0.385; in series [1] (pH 6.5, modulator: ogerin) it was -0.416. For the same variant, the surface expression score in series [2] is -1.15.
Turning to Y268T, the cAMP reporter score in series [1] (pH 6, modulator: ogerin) is -0.692; in series [1] (pH 6.5, modulator: ogerin) it was -1.72.
Turning to Y268Q, the cAMP reporter score in series [1] (pH 6, modulator: ogerin) is -0.823; in series [1] (pH 6.5, modulator: ogerin), -0.901.
As to Y268K, the cAMP reporter score in series [1] (pH 6) is -1.02; in series [1] (pH 6, modulator: ogerin), -0.245; in series [1] (pH 6.5, modulator: ogerin), -2.09. Besides, in series [2], the surface expression score was -2.24.
As for F348Q, the cAMP reporter score in series [1] (pH 6, modulator: ogerin) is 0.251. In series [2], the surface expression score was found to be 0.676.
As to I107T, the cAMP reporter score in series [1] (pH 6, modulator: ogerin) was -1.38. Further, the surface expression score in series [2] was -0.246.
As for V246K, the cAMP reporter score in series [1] (pH 6) is -1.01; in series [1] (pH 6, modulator: ogerin), -2.56; in series [1] (pH 6.5, modulator: ogerin), -0.619. Moreover, the surface expression score in series [2] is -3.28.
Turning to L157G, the cAMP reporter score in series [1] (pH 6, modulator: ogerin) is -1.41; in series [1] (pH 6.5, modulator: ogerin), -0.965. Besides, in series [2], the surface expression score was determined as 0.185.
